The target of one series is T1, His×6-YY1(wt) (human, UniProt P25490).
T1 construct: Yin Yang 1 (YY1), wild type; also called Yin Yang 1; source: bacteria, recombinant, purified
Nature of the series: SPR; Biacore T200; about 12,000 RU of His×6-YY1(wt) immobilised by amine coupling on a CM5 chip; analytes at 62.5, 125, 250, 500 and 1000 nM. To be noted: both partners purified. (In general: In SPR one partner is held on a chip, and binding of the other changes the refractive index at the surface.)

The next series concerns the target T2, His×6-YY1(1–226) (human, UniProt P25490 1-226).
T2 construct: source: bacteria, recombinant, purified
Nature of the series: SPR; Biacore T200; His×6-YY1(1–226) immobilised by amine coupling on a CM5 chip; analytes at 62.5, 125, 250, 500 and 1000 nM. As to conditions: both partners purified.

Series [1] deals with the molecule itself. Nature of the series: native gel or EMSA; purified His×6 proteins on 10% native PAGE (Figure 3E); in Figure 3I YY1(ΔZF) (6.5 µg) with synthetic Cont, OPB or YPB peptide, 4 °C, 2 h. (In EMSA bound probe runs differently from free probe, usually more slowly.)

B1: His×6-YY1([…]) (domain or fragment)
chain: not shown
notes: source: bacteria, recombinant, purified
For B1, in the series with His×6-YY1(wt), the binding result is given as “binds”.

B2: His×6-YY1([…]) (domain or fragment, human)
chain: QEVILVQTREEVVGGDDSDGLRAEDGFEDQILIPVPAPAGGDDDYIEQTLVTVAAAGKSGGGGSSSSGGGRVKKGGGKKSGKKSYLSGGAGAAGGGGADP[about 20 residues left out here]
notes: as for B1
For B2, the binding result with His×6-YY1(wt) and with His×6-YY1(1–226) was “binds” in each case.

B3: His×6-YY1(ΔZF) (domain or fragment, human)
chain: MASGDTLYIATDGSEMPAEIVELHEIEVETIPVETIETTVVGEEEEEDDDDEDGGGGDHGGGGGHGHAGHHHHHHHHHHHPPMIALQPLVTDDPTQVHHHQEVILVQTREEVVGGDDSDGLRAEDGFEDQILIPVPAPAGGDDDYIEQTLVTVAAAGKSGGGGSSSSGG[about 100 residues left out here]PPGGIPGIDLSDPKQLAEFARMKPRKIKEDDAPRT
notes: YY1 without the zinc finger domain; source: recombinant, purified
B3: in series [1], the binding result is recorded as “binds”.

Values taken from article PMC8996997, “YY1 Oligomerization Is Regulated by Its OPB Domain and Competes with Its Regulation of Oncoproteins” (Cancers, 2022).
